In the supplement of paper PMC10126150:
Values marked as one replicate rest on one cluster of the flow cell; about a third of the high ones do not repeat.
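Note: ATP exposure 15 min at 22 °C before imaging.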

What follows are sequences tested on ATP (assay: switch fluorescence ratio, 500 uM ATP over buffer (Cy3 cluster intensity, sum of 5 cycles each) (fold (ratio)); higher = stronger signal-on switching upon ATP binding; sequences stand for … in TCGTCGGCAGCGTCAGATGTGTATAAGAGACAGTTTTTTTTTTTTTTTTTTTTTTTTT…TC). Conditions: aptamer strand: ATP DNA aptamer (quencher-CACCTGGGGGAGTATTGCGGAGGAAGG + anchor), 100 nM annealed; ATP concentration: 500 uM; one replicate.
In short: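 For every switch-domain sequence, the fluorescence ratio is the mean of per-cluster values, each being summed target-cycle Cy3 intensity over summed buffer-cycle Cy3 intensity. Clusters outside 100-1000 RFU were excluded. On a modified Illumina MiSeq flow-cell, the Cy3-labelled switching-strand clusters were annealed to 100 nM quencher-labelled ATP aptamer, imaged in selection buffer and then after 15 min with 500 uM ATP at 22 °C. Five such cycles were run, with NaOH stripping and re-annealing between them.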
In the case of GGCATCAATA, the switch fluorescence ratio is reported as 1.02. Work on GGCATCGAGA yielded a switch fluorescence ratio of 1.06. With GGCATTGAAG the switch fluorescence ratio was 1.02. GGCCAAGTGA gave a switch fluorescence ratio of 0.967. In the case of GGCCACAGAG, the switch fluorescence ratio is reported as 1.03. GGCCACTGGC showed a switch fluorescence ratio of 1.09. GGCCCATGCA was tested, and the switch fluorescence ratio was 0.992. GGCCCCACAC was tested, and the switch fluorescence ratio was 1.19. GGCCCCCTAT showed a switch fluorescence ratio of 0.996. Sequence GGCCGAAGAC has a switch fluorescence ratio of 1.21. GGCCGACAAT gave a switch fluorescence ratio of 1.22. In the case of GGCCGAGAAG, the switch fluorescence ratio is reported as 1.04. Sequence GGCCGAGTGC has a switch fluorescence ratio of 1. GGCCGGAAAC gave a switch fluorescence ratio of 1.2. Work on GGCCGGACTA yielded a switch fluorescence ratio of 1.02. GGCCGGGTTT was tested, and the switch fluorescence ratio was 0.997. For GGCCTACCAG, the switch fluorescence ratio was 1.02. GGCCTACTTT showed a switch fluorescence ratio of 1. Work on GGCCTAGCGG yielded a switch fluorescence ratio of 1. GGCCTGCGCA was tested, and the switch fluorescence ratio was 1.05. Sequence GGCCTGTGGC has a switch fluorescence ratio of 0.978. GGCCTTTCCT showed a switch fluorescence ratio of 1.39. Sequence GGCGAAACCC has a switch fluorescence ratio of 1.03. GGCGACTACT gave a switch fluorescence ratio of 1.04. Work on GGCGCAACGC yielded a switch fluorescence ratio of 1.24. With GGCGCAAGA the switch fluorescence ratio was 1.3. Work on GGCGCACGAG yielded a switch fluorescence ratio of 0.998. In the case of GGCGCATGCA, the switch fluorescence ratio is reported as 0.982. With GGCGCATTTG the switch fluorescence ratio was 1.07. GGCGCCATTC was tested, and the switch fluorescence ratio was 1.02. Sequence GGCGCCTTGT has a switch fluorescence ratio of 0.988. With GGCGCGGTCA the switch fluorescence ratio was 0.962. For GGCGCGTTGG, the switch fluorescence ratio was 0.964. With GGCGCTAACC the switch fluorescence ratio was 1.03. GGCGCTCAGA gave a switch fluorescence ratio of 1.03. GGCGCTCGTG gave a switch fluorescence ratio of 0.993. Sequence GGCGCTGTAC has a switch fluorescence ratio of 1.75. Sequence GGCGCTTCTG has a switch fluorescence ratio of 0.92. GGCGGCGATG showed a switch fluorescence ratio of 1.04. GGCGGGAATG showed a switch fluorescence ratio of 1.01. GGCGGGGTCA was tested, and the switch fluorescence ratio was 1.02. Sequence GGCGGTGCCA has a switch fluorescence ratio of 1.01. For GGCGTAATGC, the switch fluorescence ratio was 1.64. GGCGTGTGGA showed a switch fluorescence ratio of 1.04. GGCGTTAAGA was tested, and the switch fluorescence ratio was 1.09. For GGCGTTCAGG, the switch fluorescence ratio was 1.01. In the case of GGCGTTGACA, the switch fluorescence ratio is reported as 0.998. Sequence GGCGTTGCTT has a switch fluorescence ratio of 1.03. Work on GGCTAAACGA yielded a switch fluorescence ratio of 1.04. GGCTAATGT showed a switch fluorescence ratio of 1.01. GGCTACAGGT showed a switch fluorescence ratio of 0.975. In the case of GGCTACCTAG, the switch fluorescence ratio is reported as 1.01. GGCTACGGCA was tested, and the switch fluorescence ratio was 1.04. GGCTACTATA gave a switch fluorescence ratio of 1.05. GGCTAGACGA showed a switch fluorescence ratio of 1.01. Work on GGCTCCATGT yielded a switch fluorescence ratio of 0.998. Sequence GGCTCCCCGG has a switch fluorescence ratio of 2.3. GGCTCCGATT was tested, and the switch fluorescence ratio was 1.77. Sequence GGCTCGCCTC has a switch fluorescence ratio of 1.03. For GGCTCGGTTT, the switch fluorescence ratio was 1.02. With GGCTCTATGA the switch fluorescence ratio was 1.04. GGCTCTATTT showed a switch fluorescence ratio of 0.927. Work on GGCTCTCACG yielded a switch fluorescence ratio of 0.99. For GGCTCTCTT, the switch fluorescence ratio was 0.99. For GGCTCTTAGA, the switch fluorescence ratio was 0.985. Sequence GGCTGAGCT has a switch fluorescence ratio of 0.927. With GGCTGAGTGT the switch fluorescence ratio was 1. Sequence GGCTGCAGCA has a switch fluorescence ratio of 1.03. In the case of GGCTGCCGAA, the switch fluorescence ratio is reported as 0.956. GGCTGCGGGG showed a switch fluorescence ratio of 0.98. For GGCTGGTTGT, the switch fluorescence ratio was 1. GGCTTAATCA gave a switch fluorescence ratio of 0.96. GGCTTCACCG was tested, and the switch fluorescence ratio was 1.12. GGCTTCAGCT was tested, and the switch fluorescence ratio was 0.967. Work on GGCTTCTGG yielded a switch fluorescence ratio of 0.996. GGCTTGCTAC gave a switch fluorescence ratio of 1.05. GGCTTGGATA was tested, and the switch fluorescence ratio was 1.02. Sequence GGCTTGGTGA has a switch fluorescence ratio of 0.986. GGGAAAACTC gave a switch fluorescence ratio of 1.06. GGGAAACCAA showed a switch fluorescence ratio of 1.02. In the case of GGGAAAGTGC, the switch fluorescence ratio is reported as 1.13. In the case of GGGAAAGTTC, the switch fluorescence ratio is reported as 0.978. For GGGAACAGGA, the switch fluorescence ratio was 1.01. Work on GGGAACGTCA yielded a switch fluorescence ratio of 1.01. Work on GGGAAGCTTG yielded a switch fluorescence ratio of 1.05. In the case of GGGAAGTGGT, the switch fluorescence ratio is reported as 1.03. GGGAATAATT showed a switch fluorescence ratio of 1.02. Sequence GGGAATGCGA has a switch fluorescence ratio of 1.02. In the case of GGGACACTGT, the switch fluorescence ratio is reported as 1.02. GGGACATTTC showed a switch fluorescence ratio of 1.04. In the case of GGGACCAAGA, the switch fluorescence ratio is reported as 1.02. With GGGACCTTCA the switch fluorescence ratio was 2.14. With GGGACGACGG the switch fluorescence ratio was 1.04. GGGACGCTCG gave a switch fluorescence ratio of 0.956. GGGACGGGAC gave a switch fluorescence ratio of 1.09. GGGACTAACA was tested, and the switch fluorescence ratio was 0.995. Work on GGGACTAACG yielded a switch fluorescence ratio of 1.01. GGGACTGATT was tested, and the switch fluorescence ratio was 0.989. For GGGACTGGGC, the switch fluorescence ratio was 1.06. GGGACTTGGT showed a switch fluorescence ratio of 1.01.
